# Some of the results follow. The main result of the screen is listed elsewhere. These columns were measured beside it and carry no call. The list favours compounds with an active or inconclusive main result. Words in brackets tell the shape of the fitted curve; partial curves, single points and poor fits give uncertain potencies.
# Biological target: Histamine N-methyltransferase (Homo sapiens) (UniProt P50135)
# Experiment: Confirmatory Screen for Target Class Profiling of Small Molecule Inhibitors of Methyltransferases (AID 1745852);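 note: inhibitor potency for blocking SAH production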
# Settings: MTase-Glo luminescence, SAH detection, recombinant enzyme; measured here: HNMT inhibition potency
# Tags give direction and shape of the fitted curve.
# Sequence of UniProt P50135 (P50135 whole entry, looked up): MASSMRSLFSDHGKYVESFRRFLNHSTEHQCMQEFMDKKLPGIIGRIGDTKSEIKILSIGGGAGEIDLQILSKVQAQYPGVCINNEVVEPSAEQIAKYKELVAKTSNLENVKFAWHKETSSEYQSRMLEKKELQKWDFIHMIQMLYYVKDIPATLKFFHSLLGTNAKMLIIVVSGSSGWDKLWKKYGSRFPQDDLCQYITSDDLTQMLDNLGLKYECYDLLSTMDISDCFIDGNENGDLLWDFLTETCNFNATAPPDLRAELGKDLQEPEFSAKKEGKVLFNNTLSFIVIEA
row,Structure (SMILES),IC50
1,O=C(CCCc1nnc2n3nc(-c4ccccc4)nc3c3ccccc3n12)N1CCC(N2CCCCC2)CC1,"9.61 µM [falling, partial curve]"
2,N#Cc1cnc(N2CC3CCC(C2)N3CC(F)(F)F)s1,"31.2 µM [falling, partial curve]"
3,CN1CCCC2(C1)CN(C)c1ccc(C(=O)NCC3CCCCC3)cc12 (stereo not given),"12.4 µM [falling, partial curve]"
4,CC1CCN(CCCNC(=O)CCc2nnc3n(Cc4ccc(F)cc4)c(=O)c4ccccc4n23)CC1,"7.64 µM [falling, partial curve]"
5,Cn1cc(CN2CCCC(COc3ccccc3C(=O)N3CCCCC3)C2)c2ccccc21 (stereo not given),"21.5 µM [falling, partial curve, poor fit]"
6,Cc1cc(NC(=O)NCCN2CCC(O)(Cc3ccccc3)CC2)c2ccccc2n1,"19.2 µM [falling, partial curve]"
7,CC(C)NC(=O)c1ccccc1OCC1CCCN(Cc2cn(C)c3ccccc23)C1 (stereo not given),"19.2 µM [falling, partial curve]"
8,OC1(Cn2ccnc2)CCN(Cc2ccccc2Cn2cccn2)CC1,"19.2 µM [falling, partial curve]"
9,C=CC[N+]1([C@H]2C[C@H]3[C@@H]4CC[C@H]5C[C@H](OC(C)=O)[C@@H](N6CCCCC6)C[C@]5(C)[C@H]4CC[C@]3(C)[C@H]2OC(=O)CC)CCCCC1,"15.2 µM [falling, partial curve]"
10,Cc1cnc(C2CCC2)n1C1CCN(C(=O)CCC2CCCC2)CC1,"15.2 µM [falling, partial curve]"

# Source: PubChem BioAssay (NCATS)
